Source: a collection of fitness landscapes (doi:10.1126/science.1257360)
The list shows a part of the results.

B1: PhoQ; a variant is named by its letters at X, in order, P23837 (parent)
chain: MKKLLRLFFPLSLRVRFLLATAAVVLVLSLAYGMVALIGYSVSFDKTTFRLLRGESNLFYTLAKWENNKLHVELPENIDKQSPTMTLIYDENGQLLWAQRDVPWLMKMIQPDWLKSNGFHEIEADVNDTSLLLSGDHSIQQQLQEVREDDDDAEMTHSVAVNVYPATSRMPKLTIVVVDTIPVELKSSYMVWSWFIYVLSANLLLVIPLLWVAAWWSLRPIEALAKEVRELEEHNRELLNPATTRELTSLVRNLNRLLKSERERYDKYRTTLTDLTHSLKTPLXXLQXXLRSLRSEKMSVSDAEPVMLEQISRISQQIGYYLHRASMRGGTLLSRELHPVAPLLDNLTSALNKVYQRKGVNISLDISPEISFVGEQNDFVEVMGNVLDNACKYCLEFVEISARQTDEHLYIVVEDDGPGIPLSKREVIFDRGQRVDTLRPGQGVGLAVAREITEQYEGKIVAGESMLGGARMEVIFGRQHSAPKDE

Variants of: B1
Assay: enrichment ratio after two sorts for PhoP signalling (ratio (wild type AVST 3.29)); higher = more functional
Conditions: with PhoP (E. coli)

Variant	enrichment ratio
VMAP	≤ 0.25
ADDP	≤ 0.25
HCDW	≤ 0.25
SYRC	≤ 0.25
AHWK	≤ 0.25
SYMV	0.557
GEAT	14.1
YHCL	≤ 0.25
LFRR	≤ 0.25
FDRA	≤ 0.25
FHQQ	≤ 0.25
AFPI	≤ 0.25
FACK	≤ 0.25
FGGR	≤ 0.25
MHQN	≤ 0.25
FKPG	≤ 0.25
ISPA	≤ 0.25
EGYE	≤ 0.25
PEGL	≤ 0.25
LFQL	≤ 0.25
YQAK	≤ 0.25
GRKR	≤ 0.25
YNCW	≤ 0.25
RETT	≤ 0.25

Variant	enrichment ratio
LANF	≤ 0.25
FYLF	≤ 0.25
VHRL	0.637
TCQA	16.2
WWLY	≤ 0.25
IRQT	≤ 0.25
VICY	≤ 0.25
TLRM	≤ 0.25
APIV	≤ 0.25
QRID	≤ 0.25
FTQS	≤ 0.25
HADQ	≤ 0.25
EQGY	≤ 0.25
KHIG	≤ 0.25
KICV	≤ 0.25
NCAP	≤ 0.25
MCSY	≤ 0.25
NYAI	≤ 0.25
YLTM	0.267
LWNF	≤ 0.25
DNGY	≤ 0.25
FYDY	≤ 0.25
VQPC	≤ 0.25
LEVF	≤ 0.25

Variant	enrichment ratio
WWTA	≤ 0.25
DDLE	≤ 0.25
IRKG	≤ 0.25
EKFE	≤ 0.25
VLAH	≤ 0.25
NEIQ	≤ 0.25
NLEG	≤ 0.25
LKYW	≤ 0.25
LGDE	≤ 0.25
GLIM	3.84
DGTP	≤ 0.25
DDAH	≤ 0.25
RERT	≤ 0.25
FYQN	≤ 0.25
SQRC	≤ 0.25
GHEW	≤ 0.25
EDLR	≤ 0.25
HAMI	≤ 0.25
MEAA	≤ 0.25
GQPC	≤ 0.25
DMTS	≤ 0.25
FAMR	≤ 0.25
WVSR	≤ 0.25
FGHQ	≤ 0.25

Variant	enrichment ratio
NEPR	≤ 0.25
NKSC	≤ 0.25
IMGR	≤ 0.25
GSTC	0.618
PQDI	≤ 0.25
QCDS	≤ 0.25
GKKV	≤ 0.25
DLCE	≤ 0.25
FWDA	≤ 0.25
NGQF	≤ 0.25
FVNY	≤ 0.25
RGER	≤ 0.25
QSAQ	5
DKGA	≤ 0.25
YTRN	≤ 0.25
DVEL	≤ 0.25
MQQP	≤ 0.25
WWHR	≤ 0.25
HAIM	≤ 0.25
HSMA	≤ 0.25
WESR	≤ 0.25
MFTY	≤ 0.25
MVGW	≤ 0.25
KSYT	≤ 0.25

Variant	enrichment ratio
WFTW	≤ 0.25
WYLW	≤ 0.25
DCYT	≤ 0.25
WKSF	≤ 0.25
RHNR	≤ 0.25
DSKS	0.423
SPIK	≤ 0.25
LSPA	≤ 0.25
YMEV	≤ 0.25
TSSI	19.5
TAIR	≤ 0.25
EFFG	≤ 0.25
FDMS	≤ 0.25
MSYG	5.99
GGHA	≤ 0.25
AIWA	≤ 0.25
KLEC	≤ 0.25
HWCF	≤ 0.25
DVNT	≤ 0.25
DPYL	≤ 0.25
FPRW	≤ 0.25
NNRD	≤ 0.25
QVSK	0.663
LLNT	≤ 0.25

Variant	enrichment ratio
DTAV	≤ 0.25
MLYD	≤ 0.25
RICS	≤ 0.25
GYHY	≤ 0.25
LSPR	≤ 0.25
ACPA	≤ 0.25
QLCK	≤ 0.25
RHVP	≤ 0.25
WPHI	≤ 0.25
DCEW	≤ 0.25
RNKI	≤ 0.25
SATV	5.18
RGSC	≤ 0.25
VSHE	≤ 0.25
LHGR	≤ 0.25
KFEL	≤ 0.25
VTNV	≤ 0.25
HQVQ	≤ 0.25
KYAL	≤ 0.25
MAKC	≤ 0.25
NIYK	≤ 0.25
KELC	≤ 0.25
LYTF	≤ 0.25
RYHK	≤ 0.25

Variant	enrichment ratio
HFVP	≤ 0.25
VRPA	≤ 0.25
WEVH	≤ 0.25
EQMY	≤ 0.25
ITPA	≤ 0.25
PLDD	≤ 0.25
HCCM	≤ 0.25
TNWY	≤ 0.25
FACL	3.63
PFCK	≤ 0.25
AFRW	≤ 0.25
EPPE	≤ 0.25
LIRM	≤ 0.25
PEDG	≤ 0.25
KLSY	≤ 0.25
RCAR	≤ 0.25
LFFI	≤ 0.25
FSAQ	≤ 0.25
PWND	≤ 0.25
TSCN	26.6
FMLN	≤ 0.25
NFFE	≤ 0.25
HHMH	≤ 0.25
EVRT	≤ 0.25

Variant	enrichment ratio
WCWW	≤ 0.25
AVVR	3.58
FTAV	≤ 0.25
EHWP	≤ 0.25
KTAH	≤ 0.25
DGYA	≤ 0.25
DPMY	≤ 0.25
SESI	12.7
LLAI	≤ 0.25
NCSR	≤ 0.25
WNIW	≤ 0.25
HWVA	≤ 0.25
VYVE	≤ 0.25
MYGA	≤ 0.25
PDFH	≤ 0.25
PGGS	1.11
SAWK	≤ 0.25
DRPT	≤ 0.25
DGRV	≤ 0.25
FWLH	≤ 0.25
KAVC	≤ 0.25
YLFS	≤ 0.25
DCNQ	≤ 0.25
FLMT	≤ 0.25

Variant	enrichment ratio
VPLN	≤ 0.25
MQCP	≤ 0.25
MAPE	≤ 0.25
NCAF	≤ 0.25
HCRM	≤ 0.25
VWQT	≤ 0.25
ESAE	≤ 0.25
IHCW	≤ 0.25
GIDH	≤ 0.25
DDNM	≤ 0.25
VNGA	≤ 0.25
STFY	≤ 0.25
NRDC	≤ 0.25
YFNP	≤ 0.25
NMHS	≤ 0.25
KRMC	≤ 0.25
ENWS	≤ 0.25
MWPH	≤ 0.25
MEMA	≤ 0.25
YDVM	≤ 0.25
YQCH	≤ 0.25
HHSM	≤ 0.25
YDFE	≤ 0.25
SQPQ	≤ 0.25

Variant	enrichment ratio
METD	≤ 0.25
QSVW	≤ 0.25
DHGE	≤ 0.25
PFDH	≤ 0.25
MVHW	≤ 0.25
LKLL	≤ 0.25
EACV	≤ 0.25
NAAG	≤ 0.25
LNWH	≤ 0.25
PMDV	≤ 0.25
LWSP	≤ 0.25
GIPC	≤ 0.25
NAFA	≤ 0.25
FADK	≤ 0.25
KYYY	≤ 0.25
QGYF	1.19
YHVH	≤ 0.25
RMFV	≤ 0.25
ISIS	≤ 0.25
MDEF	≤ 0.25
VAVF	≤ 0.25
VNNR	≤ 0.25
FETV	4.06
VKVK	≤ 0.25

Variant	enrichment ratio
GRGQ	≤ 0.25
REYH	≤ 0.25
FCYI	≤ 0.25
NDLH	≤ 0.25
WMSR	≤ 0.25
GMDN	≤ 0.25
MWFT	≤ 0.25
GAIK	≤ 0.25
MHSG	≤ 0.25
YAPP	≤ 0.25
EQTI	≤ 0.25
LADD	≤ 0.25
QIAN	≤ 0.25
KPMD	≤ 0.25
KDES	≤ 0.25
QHIQ	≤ 0.25
YGGN	≤ 0.25
HYQA	≤ 0.25
QYNC	≤ 0.25
QQAR	≤ 0.25
KRKS	≤ 0.25
GSYA	≤ 0.25
NQIH	≤ 0.25
KNVA	≤ 0.25

Variant	enrichment ratio
PFLI	≤ 0.25
ATMA	1.82
RNDR	≤ 0.25
TGNP	≤ 0.25
QRCL	≤ 0.25
GAVL	≤ 0.25
HQHS	≤ 0.25
DRPL	≤ 0.25
NKSQ	≤ 0.25
HAFE	≤ 0.25
VKYQ	≤ 0.25
NMLP	≤ 0.25
LHIA	≤ 0.25
VYTK	≤ 0.25
GHCL	≤ 0.25
PKCW	≤ 0.25
MVWE	≤ 0.25
QEYP	≤ 0.25
TILR	≤ 0.25
YGMN	≤ 0.25
DHAC	≤ 0.25
KYQI	≤ 0.25
YRWY	≤ 0.25
ITSW	≤ 0.25

Variant	enrichment ratio
DPYF	≤ 0.25
GYQP	≤ 0.25
LAYF	1.23
FHKY	≤ 0.25
QKII	≤ 0.25
YEWR	≤ 0.25
KIIV	≤ 0.25
EHCK	≤ 0.25
EYYT	≤ 0.25
PRRR	≤ 0.25
YCFT	≤ 0.25
WGSR	≤ 0.25
LICP	≤ 0.25
GLRR	≤ 0.25
ISAG	≤ 0.25
NFID	≤ 0.25
ISVE	≤ 0.25
TTKW	≤ 0.25
